Values quoted from earlier work in article PMC8227400, “Novel N-Arylsulfonylindoles Targeted as Ligands of the 5-HT6 Receptor. Insights on the Influence of C-5 Substitution on Ligand Affinity” (Pharmaceuticals, 2021).

Target: human 5-HT6 receptor (Homo sapiens, UniProt P50406)
Parameters: expressed in transfected cells; host or cells: HEK-293
Conditions: C-5 unsubstituted derivatives previously reported; cited from earlier work

Chain of UniProt P50406 (P50406 whole entry): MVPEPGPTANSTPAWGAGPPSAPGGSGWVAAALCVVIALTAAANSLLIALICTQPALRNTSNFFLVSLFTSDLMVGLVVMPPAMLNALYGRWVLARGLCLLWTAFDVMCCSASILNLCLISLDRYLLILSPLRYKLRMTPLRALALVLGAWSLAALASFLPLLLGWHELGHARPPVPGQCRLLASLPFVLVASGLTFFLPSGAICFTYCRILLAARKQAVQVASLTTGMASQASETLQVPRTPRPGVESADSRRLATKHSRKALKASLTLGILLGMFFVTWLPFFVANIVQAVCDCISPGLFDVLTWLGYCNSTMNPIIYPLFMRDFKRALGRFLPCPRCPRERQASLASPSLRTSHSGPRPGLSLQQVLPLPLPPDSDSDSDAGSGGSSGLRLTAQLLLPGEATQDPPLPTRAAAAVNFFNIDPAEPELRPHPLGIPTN

SMILES	Ki
COc1ccccc1N1CCN(CC(O)c2cn(S(=O)(=O)c3ccc(I)cc3)c3ccccc23)CC1 (stereo not shown) [PUC-7]	18.4 nM
COc1ccccc1N1CCN(CC(O)c2cn(S(=O)(=O)c3ccc(C)cc3)c3ccccc23)CC1 (stereo not shown) [PUC-32]	13.6 nM
O=S(=O)(c1ccc(I)cc1)n1cc(C(O)CN2CCN(c3ccccn3)CC2)c2ccccc21 (stereo not shown) [PUC-9]	371 nM
Cc1ccc(S(=O)(=O)n2cc(C(O)CN3CCN(c4ncccn4)CC3)c3ccccc32)cc1 (stereo not shown) [PUC16]	851 nM
COc1ccc(S(=O)(=O)n2cc(C(O)CN3CCOCC3)c3ccccc32)cc1 (stereo not shown) [PUC-22]	891 nM
Cc1ccc(S(=O)(=O)n2cc(C(O)CN3CCN(c4ccccn4)CC3)c3ccccc32)cc1 (stereo not shown) [PUC-24]	479 nM
COc1ccccc1N1CCN(CC(O)c2cn(S(=O)(=O)c3cccc4ccccc34)c3ccccc23)CC1 (stereo not shown) [PUC-10]	14.6 nM
